For this experiment, the system named is influenza A/Aichi/2/69 (H3N2). Put plainly: microbe, parasite or virus in culture. The class given is cell-based. Particulars: H3N2, MDCK, read-out: EC50, A/Aichi/2/68 (H3N2).

Each structure is given as a SMILES string.

Regarding `O=C1c2c(O)c(=O)ccn2N([C@@H]2c3ccc(F)c(F)c3CSc3ccsc32)[C@@H]2COCCN12` [1.3.2, (12aR)-7-hydroxy-12-[(10R)-6,7-difluoro-5,10-dihydrothieno[3,2-c][2]benzothiepin-10-yl]-3,4,12,12a-tetrahydro-1H-[1,4]oxazino[3,4-c]pyrido[2,1-f][1,2,4]triazine-6,8-dione], the EC50 was 0.23 nM.

The record behind these values is patent publication US12091423B2, “Substituted 3,4,12,12a-tetrahydro-1H-[1,4]oxazino[3,4-c]pyrido[2,1-f][1,2,4]triazine-6,8-dione, pharmaceutical composition, method for the production and use thereof” (VIRIOM, INC., priority 2019, dated 2024).
